{
  "source": "patent US20240400644A1",
  "about": "(ACROIMMUNE GUANGZHOU BIOTECH, published 2024)",
  "binders": {"B1": {"name": "AI-071-2copies (Fc fusion)", "chain": "STSNSGLAPNPTSTSNSGLAPNPT[human IgG1 Fc skipped]"}, "B2": {"name": "AI-071-X (Fc fusion)", "chain": "SETTTGTSSNSSSETTTGTSSNSSSETTTGTSSNSSSETTTGTSSNSSSETTTGTSSNSS[human IgG1 Fc skipped]", "modifications": "glycosylated as produced in CHO cells; sites not mapped"}, "B3": {"name": "AI-071-Y (Fc fusion)", "chain": "APNPTNATTKAAAPNPTNATTKAAAPNPTNATTKAAAPNPTNATTKAAAPNPTNATTKAA[human IgG1 Fc skipped]", "modifications": "glycosylated as produced in CHO cells; sites not mapped", "notes": "Signal peptide left out; also called AI-71-Y"}, "B4": {"name": "AI-071-Z (Fc fusion)", "chain": "GLAPNPTNATTKGLAPNPTNATTKGLAPNPTNATTKGLAPNPTNATTKGLAPNPTNATTK[human IgG1 Fc skipped]", "notes": "Signal peptide left out"}},
  "key": {"HMGB1-His tag protein [1]": {"target": "T1, HMGB1-His tag protein (human, UniProt P09429 1-215, limits assumed)", "T1 construct": "Bought, HEK293 cell derived; also called human HMGB1; HMGB1-His protein; not shown: His tag", "T1 sequence (looked up)": "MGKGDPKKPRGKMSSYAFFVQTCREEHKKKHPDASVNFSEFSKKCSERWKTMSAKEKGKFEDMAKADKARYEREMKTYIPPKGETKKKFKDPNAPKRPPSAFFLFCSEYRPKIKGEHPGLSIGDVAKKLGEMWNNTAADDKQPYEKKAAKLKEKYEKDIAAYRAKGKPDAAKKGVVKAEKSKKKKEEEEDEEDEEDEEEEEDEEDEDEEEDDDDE", "assay": "ELISA: HMGB1-His coated at 0.1 µg/mL, Fc-fusion protein titrated 2-fold in buffer with 1 mM MgCl2 and 1 mM CaCl2, HRP goat anti-human IgG-Fc, TMB", "protocol": "FIG. 19A-19B show the binding of 2 different versions of AI-071-Fc protein containing either 1 copy of 071core (AI-071-1copy) or 2 copies of 071core (AI-071-2copies) to human Siglec-10 or HMGB1 in ELISA. A control sample of AI-071 fusion protein was included in the assay and served for comparison. […] Briefly, a 96-well plate was coated with recombinant GST-Siglec-10 fusion protein (at concentration of 200 ng/ml). After washing and blocking, the plate was incubated with a two-fold serial dilution of different versions of AI-071-Fc protein or AI-071 control sample (all starting at 1.5 mg/mL), the bound protein was then detected by adding HRP-labeled goat anti-human (1:1000, Invitrogen, A18829), followed by the addition of tetramethylbenzidin (TMB) substrates. […] Briefly, a 96-well plate was coated with 0.1 μg/mL HMGB1-His tag protein (AcroBiosystems, HM1-H5220, HEK293 cell derived). The plate was then incubated with 2-fold serial dilutions of different version of AI-07-Fc protein (all starting at 1.5 mg/mL, in PBST-1% BSA solution containing 1 mM MgCl2 and 1 mM CaCl2). The bound protein was then detected by adding HRP-labeled goat anti-human IgG-Fc antibody (1:1000, Invitrogen, A18829), followed by the addition of tetramethylbenzidin (TMB) substrates."}, "HMGB1-His tag protein [2]": {"target": "T1, HMGB1-His tag protein", "assay": "ELISA: HMGB1-His coated at 0.1 µg/mL, Fc-fusion protein titrated 2-fold in buffer with 1 mM MgCl2 and 1 mM CaCl2, HRP goat anti-human IgG-Fc, TMB", "protocol": "Briefly, a 96-well plate was coated with recombinant GST-Siglec-10 fusion protein (at concentration of 200 ng/ml). After washing and blocking, the plate was incubated with a two-fold serial dilution of different versions of AI-071-Fc protein or AI-071 control sample (all starting at 1.5 mg/mL), the bound protein was then detected by adding HRP-labeled goat anti-human (1:1000, Invitrogen, A18829), followed by the addition of tetramethylbenzidin (TMB) substrates. […] Briefly, a 96-well plate was coated with 0.1 μg/mL HMGB1-His tag protein (AcroBiosystems, HM1-H5220, HEK293 cell derived). The plate was then incubated with 2-fold serial dilutions of different version of AI-07-Fc protein (all starting at 1.5 mg/mL, in PBST-1% BSA solution containing 1 mM MgCl2 and 1 mM CaCl2). The bound protein was then detected by adding HRP-labeled goat anti-human IgG-Fc antibody (1:1000, Invitrogen, A18829), followed by the addition of tetramethylbenzidin (TMB) substrates.\nFIG. 20A-20B show the binding of 3 different other versions of AI-071-Fc protein (AI-071-X, AI-71-Y and AI-071-Z), to human Siglec-10 or HMGB1 in ELISA. Each of these three AI-071-Fc protein variants (AI-071-X, AI-71-Y and AI-071-Z) containing 5 copies of a 12 AA-long peptide derived from different portions of CD24 other than 071core peptide. Same as in FIG. 19, AI-071 fusion protein was included in the assay and served as a control sample for comparison. […] The ELISA method and sample preparation are same as that in FIG. 19A. […] The ELISA method and sample preparation are same as that in FIG. 19B.", "remark": "listed apart in the source"}},
  "note": "Like-named read-outs stand apart in the source and are kept apart here.",
  "data": [
    {"binder": "B1", "values": [
      {"measurement": "binding result", "setting": "HMGB1-His tag protein [1]", "value": "binds"}
    ]},
    {"binder": "B2", "values": [
      {"measurement": "binding result", "setting": "HMGB1-His tag protein [2]", "value": "binds"}
    ]},
    {"binder": "B3", "values": [
      {"measurement": "binding result", "setting": "HMGB1-His tag protein [2]", "value": "binds"}
    ]},
    {"binder": "B4", "values": [
      {"measurement": "binding result", "setting": "HMGB1-His tag protein [2]", "value": "binds"}
    ]}
  ]
}
